Assay results: patent US5326882A, “Chemiluminescent 3-(substituted Adamant-2'-Ylidene) 1,2-dioxetanes” (Tropix, Inc., priority 1992, dated 1994)
The name of at least one read-out is uncertain.

Tests used:
[1] = biological target: T1, calf intestine alkaline phosphatase (Bos taurus, UniProt P19111); test: t1/2 of dioxetane anion from decay curves (Example XVIII); format: biochemical; conditions: 1 mM Magnesium Chloride, 30°C
T1 construct: from tissue; host or cells: calf intestine

alkaline phosphatase = alkaline phosphatase (Bos taurus, UniProt P19111); test: Half-life of the dioxetane anion after complete dephosphorylation (Example XXI); format: biochemical; conditions: 0.764 picomoles alkaline phosphatase to 40 nanomoles dioxetane in 0.1 M DEA, pH 10.0, 30° C.
[2] = t1/2 to constant light emission of AMPPD in aqueous solution
[3] = 0.05 M Sodium Carbonate/Sodium Bicarbonate, pH 9.5
[4] = 0.1 M Diethanolamine, 0.02% Sodium Azide, pH 10.0

T1 sequence (P19111 20-506 limits assumed): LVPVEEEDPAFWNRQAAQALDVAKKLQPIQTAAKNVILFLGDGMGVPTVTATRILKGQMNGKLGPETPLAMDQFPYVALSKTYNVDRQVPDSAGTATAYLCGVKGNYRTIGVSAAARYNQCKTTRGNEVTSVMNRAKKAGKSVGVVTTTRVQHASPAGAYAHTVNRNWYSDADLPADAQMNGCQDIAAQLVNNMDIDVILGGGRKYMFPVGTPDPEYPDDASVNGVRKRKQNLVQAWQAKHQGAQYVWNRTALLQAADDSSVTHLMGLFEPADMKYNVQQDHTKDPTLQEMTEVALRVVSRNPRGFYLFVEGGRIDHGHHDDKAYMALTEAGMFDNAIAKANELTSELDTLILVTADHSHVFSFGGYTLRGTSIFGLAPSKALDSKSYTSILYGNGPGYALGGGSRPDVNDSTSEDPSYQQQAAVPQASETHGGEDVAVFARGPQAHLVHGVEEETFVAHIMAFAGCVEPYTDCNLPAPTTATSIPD
alkaline phosphatase, sequence (P19111 20-506 limits assumed): as above

| SMILES | HALF LIFE OF ANION [1, 3] | HALF LIFE OF ANION [1, 4] | HALF-LIFE OF ANION (alkaline phosphatase) | t1/2 ([2]; 2×10^-5 M in aqueous solution, 20 µM) | t1/2 ([2]; 4×10^-3 M in the absence of BDMQ, 4000 µM) | t1/2 ([2]; concentrations above 2×10^-5 M in aqueous solution at pH 9.5 in the presence of BDMQ) |
| --- | --- | --- | --- | --- | --- | --- |
| COC1(c2cccc(OP(=O)(O)O)c2)OOC12C1CC3CC2CC(O)(C3)C1 (single isomer, unassigned) [A-OH-AMPPD, disodium 3-(4-methoxyspiro-[1,2-dioxetane-3,2'-(5'-hydroxy)tricyclo[3.3.1.1^3,7]decan]-4-yl)phenyl phosphate] | 1.33 min | 1.05 min |  |  |  |  |
| COC1(c2cccc(OP(=O)(O)O)c2)OOC12C1CC3CC2CC(O)(C3)C1 (single isomer, unassigned) [B-OH-AMPPD, disodium 3-(4-methoxyspiro-[1,2-dioxetane-3,2'-(5'-hydroxy)tricyclo[3.3.1.1^3,7]decan]-4-yl)phenyl phosphate] | 1.49 min | 1.31 min |  |  |  |  |
| COC1(c2cccc(OP(=O)(O)O)c2)OOC12C1CC3CC2CC(O)(C3)C1 (single isomer, unassigned) [HO-AMPPD] |  |  | 1.19 min |  |  |  |
| COC1(c2cccc(OP(=O)(O)O)c2)OOC12C1CC3CC(C1)CC2C3 (stereo not shown) [AMPPD, 3-(4-methoxyspiro[1,2-dioxetane-3,2'-triyclo[3.3.1.1^3,7]decan]-4-yl)phenyl phosphate, reference compound] | 2.42 min | 2.26 min | 2.10 min | 2.5 min | 30 to 60 min | 7.5 min |
| COC1(c2cccc(OP(=O)(O)O)c2)OOC12C1CC3CC2CC(Br)(C3)C1 (stereo not shown) [Br-AMPPD, disodium 3-(4-methoxyspiro-[1,2-dioxetane-3,2'-(5'-bromo)tricyclo[3.3.1.1^3,7]decan]-4-yl) phenyl phosphate] | 0.99 min | 0.56 min | 1.01 min |  |  |  |
| COC12CC3CC(C1)C1(OOC1(OC)c1cccc(OP(=O)(O)O)c1)C(C3)C2 (stereo not shown) [CH3 O--AMPPD] |  |  | 1.52 min |  |  |  |
| COC1(c2cccc(OP(=O)(O)O)c2)OOC12C1CC3CC2CC(Cl)(C3)C1 (stereo not shown) [Cl-AMPPD, disodium 3-(4-methoxyspiro-[1,2-dioxetane-3,2'-(5'-chloro)tricyclo[3.3.1.1^3,7]decan]-4-yl) phenyl phosphate] | 1.08 min | 0.86 min | 0.96 min |  |  |  |
| COC1(c2cccc(OP(=O)(O)O)c2)OOC12C1CC3CC2CC(I)(C3)C1 (stereo not shown) [I--AMPPD] |  |  | 0.93 min |  |  |  |
